Consider 42 compounds from ChEMBL document CHEMBL4888484, “Replenishing the malaria drug discovery pipeline: Screening and hit evaluation of the MMV Hit Generation Library 1 (HGL1) against asexual blood stage Plasmodium falciparum ,using a nano luciferase reporter read-out” (2022).

In all, about 150,000 compounds went through this assay and about 540 (0.36%) showed an effect of 50% or more. This is one part of the list.

The subject of this assay is Plasmodium falciparum. Put plainly: Primary screen in NF54 nanoGlo assay, in single point, at 2uM, 72h; a lower Z score goes with more inhibition. It counts as functional, Erythrocyte. Conditions: timepoint 72 hour.
On to `CCc1ccc(CN2CCC[C@H](CNC(=O)NC(C)C)C2)nc1`, for which the “% Inhibition” value is reported as 8% and the Z score is -1.16.
For `CS(=O)(=O)c1cc(C(=O)NCC[C@H]2CCc3ccccc32)cs1`, in that order: -7% and 1.35.
In the case of `CC(NCCC(O)C(C)C)c1cccc(C#N)c1` (centres undefined), the “% Inhibition” value is -8% and the Z score is on record as 0.75.
The like results for `Nc1nnnn1CC(=O)NCC1(N2CCOCC2)CCCCC1` were, in that order, -7% and 1.25.
For `Cc1ccccc1NC(=O)c1nnc(CCCC(=O)NCc2ccccc2Cl)s1`, in that order: -10% and 1.71.
For `CN1CCC(CNS(=O)(=O)c2cccs2)CC1`, in that order: -1% and 0.27.
For `CC(=O)c1cccc(N(C)CC2CCCC2O)n1` (centres undefined), the “% Inhibition” value stood at 1% and the Z score was -0.24.
The like results for `COc1ccc(-c2nc3ccc(C(=O)N4CCN(c5cc(C)ccc5C)CC4)cc3nc2-c2ccc(OC)c(OC)c2)cc1OC` were, in that order, 13% and -1.49.
The like results for `Cc1ccccc1C1(C(=O)Nc2cnn(CC(=O)N3CCOCC3)c2)CCCC1` were, in that order, -4% and 0.44.
For `CC[C@H](Oc1ccc(F)cc1)C(=O)NCc1csc(C)n1`, in that order: 19% and -2.21.
With `Cn1nncc1C(=O)N1CCS(=O)(=O)C[C@H]1C(C)(C)C`, the “% Inhibition” value is given as -3% and the Z score was found to be 0.48.
On to `O=C(Nc1ccc2c(c1)C(N1CCCC1)=Nc1ccccc1O2)c1ccccc1Cl`, for which the “% Inhibition” value is reported as 0% and the Z score was determined as 0.03.
The like results for `O=C(NCc1cccs1)c1cccn1CCN1CCOCC1` were, in that order, -4% and 0.52.
For `COC1CCN(CCN2CCN(c3ccccc3)CC2)CC1`, in that order: -10% and 1.84.
The like results for `Nc1nc2ccc(N3CCCC3)cc2s1` were, in that order, 37% and -2.32.
For the compound `O=S(=O)(NCC1CC1)c1cnc(NCCO)c(C(F)(F)F)c1`, the “% Inhibition” value was -6% and the Z score came out at 1.29.
For `Cc1nc(C)c(-c2ccnc(N(C)C)c2)o1`, in that order: -4% and 0.72.
`O=C(Nn1nnc2ccccc21)c1cccc(C(F)(F)F)c1`: the “% Inhibition” value worked out at 3% and the Z score is given as -0.47.
As for `O=C(c1ncoc1C1CC1)N1CCOC[C@@H](O)C1`, the “% Inhibition” value is 13% and the Z score is -1.88.
As for `COc1ccc(OC)c(S(=O)(=O)N2CCCCCCN(C)C(=O)CC2)c1`, the “% Inhibition” value was -10% and the Z score is 1.34.
The like results for `Cc1noc([C@@H]2CN(C(=O)Cc3c(C)noc3C)C[C@H]2C(N)=O)n1` were, in that order, -10% and 1.53.
The like results for `Cc1nc2ccc(-n3ncnc3COC[C@H]3CCCCO3)cc2s1` were, in that order, -6% and 1.09.
For `CCc1ncc(NC(=O)NCC[C@H]2CCC(F)(F)C2)cn1`, in that order: -4% and 0.59.
In the case of `COc1c(Br)cccc1C(=O)N[C@@H]1COC[C@@H]1OC`, the “% Inhibition” value is on record as -4% and the Z score came out at 0.55.
For `COc1cccc2c1CC[C@@H]2Nc1nc(-c2ccccc2)no1`, in that order: 24% and -3.03.
The like results for `CCCN1CCN(C(=O)c2cc(Cl)cc(OC)c2)[C@H]2CS(=O)(=O)C[C@H]21` were, in that order, -5% and 0.94.
For `O=C(Cc1cccs1)NCc1ccnc(-c2cccnc2)c1`, the “% Inhibition” value is listed as -7% and the Z score is reported as 1.1.
Turning to `Cc1n[nH]c(C(=O)NCCc2ncn(C)n2)c1C`, the “% Inhibition” value is reported as 11% and the Z score is on record as -1.45.
For `O=C(O)C[C@H]1CN(C(=O)c2csc3ccccc23)CCO1`, in that order: -4% and 0.61.
For `Cc1c[nH]c(CN2C[C@@H](CC(=O)O)[C@@H](c3cn(C)nn3)C2)c(C)c1=O`, in that order: -12% and 1.59.
On to `O=C(O)C1C2C=CC(O2)C1C(=O)Nc1ccccc1Cc1ccccc1` (centres undefined), for which the “% Inhibition” value is -43% and the Z score was 5.09.
The like results for `O=C(c1cccnc1-c1ccc(OCc2ccccc2)nc1)N1CCCC1` were, in that order, -12% and 1.15.
For `CN(C(=O)c1ccccc1)S(C)(=O)=O`, in that order: -6% and 1.05.
The like results for `COCc1nnc(NC(=O)c2nc(C)sc2-c2ccccc2)s1` were, in that order, -16% and 2.
For `CCS(=O)(=O)Oc1cc(CN(CC(C)C)C(=O)CC(C)C)ccc1OC`, the “% Inhibition” value is recorded as -11% and the Z score is recorded as 1.53.
The like results for `COCCn1nnnc1[C@]1(N(C)C)CCCN(C(=O)c2ccccn2)C1` were, in that order, -13% and 1.68.
The like results for `O=C(Nc1ccccc1C(F)(F)F)Nc1c(-c2cccnc2)[nH]c2ccccc12` were, in that order, -2% and 0.36.
The like results for `CC(=O)Nc1cccc(Nc2c(C(=O)N3CCCC[C@@H]3C)cnc3nc(C)ccc23)c1` were, in that order, -8% and 1.29.
Consider `Cc1ccc(-c2n[nH]cc2CN2C[C@@H]3[C@H](C2)[C@H]3C(=O)NC(C)(C)C)cc1`, for which the “% Inhibition” value stood at 1% and the Z score is recorded as -0.22.
For `O=S1(=O)CC[C@H](n2nc(C3CCOCC3)nc2-c2ccc[nH]2)C1`, the “% Inhibition” value is reported as -4% and the Z score is 0.8.
For `CCCN1CCC(NC(=O)c2cn(C3CCCCC3)nn2)CC1`, in that order: -2% and 0.24.
As for `CN(Cc1ccccc1F)C(=O)[C@@](C)(O)C1CCOCC1`, the “% Inhibition” value turned out to be 0% and the Z score is on record as -0.04.
